Laboratory results reported in PubChem BioAssay AID588342 (National Center for Advancing Translational Sciences (NCATS), 2011).
The campaign covered roughly 360,000 compounds. About 25,000 (6.9%) were called active. Inconclusive results, whose numbers are uncertain, are shown with a selection of clear calls. The call rests on the fitted dose curve; in most records, active means well fitted inhibition curve with a large enough effect; inconclusive means small, poorly fitted or top-dose-only effect; inactive means flat fitted curve, though single readings scatter. Potencies of inconclusive entries are doubtful fits and often do not repeat.

Each molecule was assayed against Luciferin 4-monooxygenase (Photinus pyralis) (UniProt P08659) (assay: qHTS profiling assay for firefly luciferase inhibitor/activator using purifed enzyme and Km concentrations of substrates (counterscreen for miR-21 project)). Conditions: purified FLuc, luminescence inhibition; series mostly up to 57.5 µM.
UniProt P08659, sequence (P08659 whole entry, looked up): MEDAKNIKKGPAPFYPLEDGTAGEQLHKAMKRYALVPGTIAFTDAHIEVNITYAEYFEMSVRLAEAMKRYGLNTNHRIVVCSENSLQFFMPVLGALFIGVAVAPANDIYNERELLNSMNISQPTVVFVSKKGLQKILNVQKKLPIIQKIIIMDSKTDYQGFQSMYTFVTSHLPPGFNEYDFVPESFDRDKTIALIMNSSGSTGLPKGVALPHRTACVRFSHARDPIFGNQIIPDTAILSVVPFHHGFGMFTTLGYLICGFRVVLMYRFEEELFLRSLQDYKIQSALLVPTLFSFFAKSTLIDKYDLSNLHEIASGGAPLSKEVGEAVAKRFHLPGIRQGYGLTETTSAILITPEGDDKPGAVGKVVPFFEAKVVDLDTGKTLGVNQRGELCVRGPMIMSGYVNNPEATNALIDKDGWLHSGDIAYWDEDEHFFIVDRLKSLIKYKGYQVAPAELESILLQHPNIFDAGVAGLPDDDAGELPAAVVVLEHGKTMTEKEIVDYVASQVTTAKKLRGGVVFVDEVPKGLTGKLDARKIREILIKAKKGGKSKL
How it was run: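 Purified P. pyralis luciferase (10nM final) with 10uM D-luciferin and 10uM ATP (Km levels) in 50mM Tris acetate pH 7.5, 10mM Mg acetate, 0.01% Tween-20, 0.05% BSA; qHTS 6-point titration, ~60 µM downward; luminescence read.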
Further: nearly all actives have a fitted effect of over 55% in size.
Potency means the concentration at half of the fitted maximal effect; tags describe the fitted curve by direction and shape.

| SMILES | Potency |
| --- | --- |
| COc1ccc(-c2csc(NC(=O)Cc3ccccc3)n2)cc1OC | inconclusive: 37.9 µM [inhibitor, single point] |
| O=C(COC(=O)c1n[nH]c(=O)c2ccccc12)c1ccc(Cl)cc1 | inconclusive: 3.38 µM [inhibitor, partial curve, poor fit] |
| CC1CCc2nc3ncn(CC(=O)Nc4cccc(C#N)c4)c(=O)c3cc2C1 (stereo unspecified) | inconclusive: 37.9 µM [inhibitor, single point] |
| Cc1cc(-c2cccc([N+](=O)[O-])c2)nc2ccccc12 | inconclusive: 19 µM [inhibitor, partial curve, poor fit] |
| Cc1cc([N+](=O)[O-])ccc1NCc1ccc2c(c1)OCCO2 | inconclusive: 23.9 µM [inhibitor, single point] |
| CC(NC(=O)Nc1ccc(Br)cc1)C(C)(C)C (stereo unspecified) | inconclusive: 26.9 µM [inhibitor, single point] |
| CCc1ccc(C(=O)COC(=O)CNC(=O)c2ccc(Br)o2)cc1 | inconclusive: 37.9 µM [inhibitor, single point] |
| COc1ccccc1-c1nn(CCC(=O)Nc2cccc(C(C)=O)c2)c2nc(C)cc(C)c12 | inactive |
| CC(C)c1ccc(C2(C)NC(=O)N(CC(=O)NC3CCCC(C)C3C)C2=O)cc1 (stereo unspecified) | inactive |
| CCN(CC)C(=O)CSC1=C(C#N)C(c2cccs2)C=C(C)N1 (stereo unspecified) | inconclusive: 21.3 µM [inhibitor, single point] |
| CCN(CC)c1cc2c(cc1F)c(=O)c(S(=O)(=O)c1ccccc1)cn2Cc1ccccc1 | inactive |
| Cc1nc2ccccn2c1C(=O)/C=C/c1ccc(F)cc1 | active: 3.01 µM |
| CC1(c2ccc(Cl)cc2Cl)NC(=O)N(CC(=O)Nc2ccc3[nH]c(=O)[nH]c3c2)C1=O (stereo unspecified) | inactive |
| S=c1nc2ccccc2c2nc(-c3ccccc3)[nH]n12 | active: 26.9 µM |
| OCCOCCNc1ncnc2sc(-c3ccccc3)cc12 | inconclusive: 26.9 µM [inhibitor, single point] |
| CCOC(=O)c1cccc(NC(=O)CCCn2c(C)c3cnn(-c4ccccc4)c(=O)c3c2C)c1 | inactive |
| COc1ccccc1NC(=O)Nc1nc(CC(=O)N2CCN(c3ccccc3)CC2)cs1 | inconclusive: 23.9 µM [inhibitor, partial curve, poor fit] |
| O=[N+]([O-])c1cc2c(cc1/C=N/NS(=O)(=O)c1ccc(Br)cc1)OCO2 | inconclusive: 23.9 µM [inhibitor, single point] |
| Cc1csc(NC(=O)c2ccc(Cl)nc2)n1 | inconclusive: 26.9 µM [inhibitor, single point] |
| O=C(C1CCCCC1)N1CCN(S(=O)(=O)c2cccc([N+](=O)[O-])c2)CC1 | inactive |
| N#C/C(=C\N1CCN(Cc2ccc3c(c2)OCO3)CC1)c1nc2ccccc2s1 | inconclusive: 26.9 µM [inhibitor, partial curve, poor fit] |
| NS(=O)(=O)c1ccc(CCNC(=O)c2ccc3ccccc3n2)cc1 | inconclusive: 26.9 µM [inhibitor, partial curve] |
| CCCC(=O)Nc1nnc(/C=C/c2ccc(OC)cc2)s1 | inconclusive: 7.57 µM [inhibitor, partial curve] |
| Cc1[nH][nH]c(=O)c1N=Nc1ccccc1C#N | inconclusive: 37.9 µM [inhibitor, partial curve, poor fit] |

| SMILES | Potency |
| --- | --- |
| CSc1nc(C)cc(SCC(=O)N/N=C/c2ccccc2)n1 | inactive |
| O=S(=O)(Nc1ccc2oc(-c3ccccc3)nc2c1)c1ccccc1 | inconclusive: 26.9 µM [inhibitor, single point] |
| CCOC(=O)c1nn(-c2ccc(F)cc2)c(=O)c(C#N)c1C | inactive |
| CS(=O)(=O)c1ccc2nc(NC(=O)c3ccc(NS(=O)(=O)c4cccc([N+](=O)[O-])c4)cc3)sc2c1 | active: 10.7 µM |
| CC(=O)c1ccc(S(=O)(=O)N2CCN(c3nc(-c4cccnc4)nc4ccccc34)CC2)cc1 | inactive |
| O=C(Nc1ccc(Cl)cc1)N1CCc2[nH]c3ccccc3c2C1 | inconclusive: 37.9 µM [inhibitor, partial curve, poor fit] |
| Cc1nc(-c2cccc(NC(=O)c3ccc(Br)o3)c2)cs1 | inconclusive: 23.9 µM [inhibitor, single point] |
| O=C(CSCc1ccc(Cl)cc1)Nc1ccc2c(c1)OCCO2 | active: 23.9 µM |
| CN(C(=O)CS(=O)(=O)c1cccc(Cl)c1)c1ccccc1 | inactive |
| CCC(Sc1nnc(C)s1)C(=O)Nc1nccs1 (stereo unspecified) | inactive |
| COc1ccccc1C(=O)O/N=C(\N)c1ccccc1Cl | inconclusive: 30.1 µM [inhibitor, partial curve, poor fit] |
| Cc1ccc(C)c(CN2C(=O)c3ccccc3S(=O)(=O)c3ccc(C(=O)N4CCOCC4)cc32)c1 | inactive |
| CC1=CC(=O)C=C(C)C1=NOC(=O)/C=C\c1ccccc1 | inconclusive: 10.7 µM [inhibitor, partial curve] |
| Cc1ccc(NC(=O)c2sc3nc(N)c(C#N)cc3c2N)cc1 | inconclusive: 4.26 µM [inhibitor, partial curve, poor fit] |
| COc1ccc(Nc2oc(COc3ccccc3OC)nc2C#N)cc1 | inconclusive: 37.9 µM [inhibitor, single point] |
| C=CCOc1cccc(C2C(C(=O)c3cc4ccccc4o3)=C(O)C(=O)N2c2cc(C)on2)c1 (stereo unspecified) | inactive |
| Cc1nnc(N/N=C\c2ccc(-c3cccc(C(=O)O)c3)o2)n1N | active: 10.7 µM |
| Cc1ccc(C)c(NC(=O)CCC(=O)NNS(=O)(=O)c2ccc(Cl)cc2)c1 | inactive |
| O=C(c1cccs1)c1coc2ccc(O)cc12 | inconclusive: 23.9 µM [inhibitor, partial curve, poor fit] |
| O=C(/C=C/c1c(F)cccc1Cl)Nc1ccc(S(=O)(=O)Nc2ncccn2)cc1 | inconclusive: 23.9 µM [inhibitor, single point] |
| O=C(O)c1ccc(NCCC2=CCCCC2)c([N+](=O)[O-])c1 | inconclusive: 15.1 µM [inhibitor, partial curve] |
| CCCCC(=O)Nc1cnc(NC(=O)c2ccco2)cc1C | inconclusive: 23.9 µM [inhibitor, partial curve] |
| Cc1ccc(NC(=O)Nc2cccs2)cc1 | active: 2.39 µM |
| COc1ccc(OC)c(-c2c3c([nH]c(=S)c2C#N)CCCC3)c1 | inconclusive: 10.7 µM [inhibitor, partial curve, poor fit] |

| SMILES | Potency |
| --- | --- |
| COc1cc(C#Cc2c(-c3cncn3C)n(C)c3ccc(-c4ccc(OC)nc4)cc23)cc(OC)c1 | inconclusive: 10.7 µM [inhibitor, single point] |
| CCOc1ccc(CC(=O)NNC(=O)NC2CCCCC2)cc1 | inactive |
| CCCCC(=O)Nc1nc2c(s1)COc1ccccc1-2 | inconclusive: 26.9 µM [inhibitor, partial curve, poor fit] |
| Cc1ccc(Nc2nc3ccccc3c(=O)[nH]2)cc1C | inactive |
| O=c1[nH]c(S)c(/C=C2\C=Nc3ccccc32)s1 | active: 15.1 µM |
| CCc1ccc(OCCSc2nc3ccccc3n2CC(=O)O)cc1 | inconclusive: 23.9 µM [inhibitor, single point] |
| CC(=O)c1ccc(COC(=O)c2cc3ccccc3oc2=O)cc1 | active: 16.9 µM |
| COc1ccc2nc(NC(=O)c3cnccn3)sc2c1 | active: 3.01 µM |
| Cc1ccc(Nc2n[nH]c(C)c2[N+](=O)[O-])cc1 | active: 19 µM |
| CCOc1cccc(C(=O)Nc2cccc(C(=O)NC(C)(C)C)c2)c1 | inconclusive: 19 µM [inhibitor, partial curve] |
| O=C(NC(=S)Nc1ncccn1)c1ccccc1Br | inconclusive: 23.9 µM [inhibitor, partial curve, poor fit] |
| CCc1ccc(NC(=O)c2ccc(F)c(S(=O)(=O)NCC3COc4ccccc4O3)c2)cc1 (stereo unspecified) | inconclusive: 21.3 µM [inhibitor, partial curve, poor fit] |
| Cc1cccc2sc(N3CCN(C(=O)c4ccco4)CC3)nc12 | inconclusive: 37.9 µM [inhibitor, partial curve, poor fit] |
| COCCCN1CN(S(=O)(=O)c2ccc(C)cc2C)c2nc3ccccc3nc21 | inactive |
| COc1ccccc1NC(=O)Cc1csc(NC(=S)Nc2ccc(C)cc2)n1 | inconclusive: 30.1 µM [inhibitor, single point] |
| CCOC(=O)c1sc(N)c(C(=O)Nc2ccccc2OC)c1C | inconclusive: 21.3 µM [inhibitor, partial curve, poor fit] |
| CCN(CC)S(=O)(=O)c1cc(NC(=O)c2n[nH]c(=O)c3ccccc23)ccc1C | active: 23.9 µM |
| CC(C)(C)c1cc(=O)[nH]c(SCc2ccccc2Cl)n1 | inconclusive: 30.1 µM [inhibitor, single point] |
| COc1ccc(NC(=O)N2CCN(c3nc(-c4cccc(OC)c4)cs3)CC2)cc1 | inconclusive: 15.1 µM [inhibitor, partial curve] |
| COc1ccc(NC(=O)CSc2ccc(-c3sc(C)nc3C)nn2)cc1OC | inconclusive: 23.9 µM [inhibitor, single point] |
| O=C(Nc1ccccc1C(=O)O)c1ccc(CN2C(=O)c3ccccc3C2=O)cc1 | inconclusive: 30.1 µM [inhibitor, single point] |
| CCc1ccc(CN2CCc3nc(Nc4ccc5c(c4)OCCO5)ncc3C2)cc1 | inactive |
| COc1ccc(Nc2nnc(-c3ccc(C)c(S(N)(=O)=O)c3)c3ccccc23)cc1 | inconclusive: 23.9 µM [inhibitor, partial curve] |
